Data: ChEMBL document CHEMBL1156829
Whole data set: some 5,400 compounds, median “IFI” near 2, cut for the highest 2% near 22. Some of the results follow.

Assay: NOVARTIS: Inhibition Frequency Index (IFI) - the number of HTS assays where a compound showed > 50% inhibition/induction, expressed as a percentage of the number of assays in which the compound was tested.
Format: functional

Compared with COc1cc(/C=C(\C#N)c2nc3ccccc3[nH]2)ccc1OCc1ccccc1F, CCc1ccccc1-n1c(C(C)N(C)C(=O)/C=C/c2ccc([N+](=O)[O-])cc2)nc2ccccc2c1=O (stereo not drawn) is lower in IFI: 4.76% for the first, 0.926% for the second.

Compared with Cc1nc2ccccc2n1S(C)(=O)=O, COCCN(C(C)C(=O)NC(CN1CCCC1)c1ccccc1)S(=O)(=O)c1c(C)noc1C (stereo not drawn) is lower in IFI: 1.82% for the first, 0.98% for the second.

Going from CCOC(=O)C1=C(C)N/C(=C/c2cc(C)n(-c3ccccc3C(F)(F)F)c2C)C1=O to Cc1cc(C)cc(-n2c(C)cc(/C=C3/SC(=Nc4ccc(Br)cc4)NC3=O)c2C)c1, the IFI rises from 0% to 2.38%.

Compared with CC1(C)C(=O)C2(CCCCC2)C(=O)OC1/C=C/c1ccccc1 (stereo not drawn), Cc1ccccc1OCC(O)Cn1c(NC2CCCCC2)nc2c1c(=O)[nH]c(=O)n2C (stereo not drawn) is lower in IFI: 1.49% for the first, 0% for the second.

Going from CCCOC(=O)C1=C(C)NC2=C(C(=O)CC(c3ccc(OC)c(OC)c3)C2)C1c1cccc(Br)c1 (stereo not drawn) to COc1ccc(C2CC(=O)C3=C(C2)NC(C)=C(C(=O)OC2CCCC2)C3c2ccc([N+](=O)[O-])cc2)cc1OC (stereo not drawn), the IFI falls from 8.86% to 3.53%.

First: CCCCN1C(=O)NC(c2ccc(NC(=O)c3cccs3)cc2)C(C(=O)OC(C)C)=C1C (stereo not drawn)
Second: COC(=O)c1sc2nc(CN(C)Cc3nccs3)ccc2c1NC(=O)c1ccc(C)s1
The IFI of the first is higher: 6.41% for the first, 1.71% for the second.

Compared with O=S(=O)(Nc1cc(Sc2nc[nH]n2)c(O)c2ccccc12)c1ccc(F)cc1, Nc1c(C(=O)NCc2ccccc2)nnn1Cc1ccc(F)cc1Cl is lower in IFI: 23.1% for the first, 0% for the second.

First: Cc1nc(-c2nc3c(s2)CN(C(=O)CCc2cccnc2)CC3)cs1
Second: COc1ccccc1CN1CCc2nc(-c3cnccn3)sc2C1
The IFI of the first is lower: 4.17% for the first, 9.86% for the second.

Going from COc1ccc(NC(=O)c2cc3cc(C4(O)CCN(Cc5cc6ccccc6[nH]5)CC4)ccc3o2)cc1 to O=C(CN1CCN(S(=O)(=O)c2cccc([N+](=O)[O-])c2)CC1)Nc1ccc(OCc2ccccc2)cc1, the IFI falls from 8.47% to 0%.

Going from CNC1=C(N(Cc2ccc(Cl)c(Cl)c2)C(C)=O)C(=O)c2ccccc2C1=O to CC(=O)N(C1=C(N(C)C)C(=O)c2ccccc2C1=O)c1ccc(Cl)c(Cl)c1, the IFI falls from 14.3% to 7.69%.

Compared with COc1ccc(C(=O)Oc2ccccc2-c2nc3ccccn3c2NC(C)(C)CC(C)(C)C)cc1, COc1cc(C(=O)NC2CC2)ccc1OC1CCN(CC(c2ccccc2)c2ccccc2)CC1 is lower in IFI: 2.86% for the first, 2.78% for the second.

First: Cc1cc(C)c(CSc2ncnc3[nH]cnc23)c(C)c1
Second: Cc1cc(Nc2ccc(Cl)c(C)c2)n2nc(C)nc2n1
The IFI of the first is higher: 1.56% for the first, 0% for the second.

Compared with CCOc1cc(S(=O)(=O)N2CCCC3(CCCCC3)C2)c(OCC)cc1-n1cnnn1, CC(C)NC(=O)c1ccc(OC2CCN(CC3CCCCC3)CC2)c(Cl)c1 is lower in IFI: 4.1% for the first, 2.82% for the second.

Going from CN1CCC(CCNCc2ccc(OCC(O)CN(C)Cc3ccccc3)cc2)CC1 (stereo not drawn) to CC(C)CNc1nc(NCCN2CCCCC2)ncc1C(=O)NCc1ccccc1, the IFI falls from 7.69% to 2.86%.

Going from CCOC(=O)c1oc2cc(O)c(CC)cc2c(=O)c1-c1ccc2c(c1)OCO2 to CCOC(=O)C1=C(C(=O)OCC)SC(=C2C(=S)C(C)(C)N(C(=O)c3cccc(F)c3)c3cc(C)ccc32)S1, the IFI falls from 3.61% to 0%.

COc1ccc(/C=C2\SC(=O)NC2=Nc2ccccc2)c(OC)c1 and COc1ccc2c(c1)c1c3n2CCN(Cc2ccccc2)C3=[N+](C)CC1 are the same in IFI: 0% for the first, 0% for the second.

Compared with Cc1cc(-c2ccc(O)c(CN3CCCCC3CO)c2)c2ccccc2n1 (stereo not drawn), Cc1cc(N2CCN(C)CC2)nc2ccc(NC(=O)Nc3ccccc3Cl)cc12 is higher in IFI: 0.848% for the first, 7.14% for the second.

Going from Brc1ccc2ncnc(NCC3CCCO3)c2c1 (stereo not drawn) to N#CCCN(CC1CCCO1)C(=O)Nc1ccc(Cl)c(C(F)(F)F)c1 (stereo not drawn), the IFI falls from 2.63% to 0%.

First: Cc1ccc(-c2nn(-c3ccccc3)c3[nH]c(=O)c(CNCc4ccccc4)cc23)cc1
Second: COc1ccc(C2N(Cc3ccccc3)c3ccccc3N2Cc2ccccc2)cc1
The IFI of the first is lower: 5.41% for the first, 20% for the second.

First: CC(C)CNC(=O)c1cnc(NCCCN)nc1NC1CCCC1
Second: CC(C)CNC(=O)c1cnc(NCCCN2CCCC2)nc1NCC1CCCCC1
The IFI of the first is higher: 1.91% for the first, 0.952% for the second.

Compared with CCC(CO)NCC(O)Cn1c2ccc(Cl)cc2c2cc(Cl)ccc21 (stereo not drawn), CN(C)CCn1c(=N)n(CC(O)c2ccc(Cl)c(Cl)c2)c2ccccc21 (stereo not drawn) is higher in IFI: 6.45% for the first, 7.69% for the second.

CCOC(=O)C1=NNC2C(=O)N(c3cccc(C)c3C)C(=O)C12 (stereo not drawn) and CCC(C)NC(=O)c1c[nH]c2ccc(S(=O)(=O)N3CCc4ccccc43)cc2c1=O (stereo not drawn) are the same in IFI: 0% for the first, 0% for the second.

Compared with Cc1ccc(NC(c2ccccc2)(c2ccccc2)c2ccccc2)cc1C, O=C(Nc1ccccc1)NC1CC2CCCC(C1)N2CCc1ccccc1 (stereo not drawn) is higher in IFI: 0% for the first, 1.32% for the second.

First: COc1c2occc2c(OC)c2c(=O)cc(C(Cl)(Cl)Cl)oc12
Second: COc1cc2nc(NCc3cccnc3)n3nc(-c4ccccc4)nc3c2cc1OC
The IFI of the first is higher: 4.05% for the first, 0% for the second.

Compared with O=C(Nc1ccc(NC(=O)c2ccc(C3=NCCCN3)cc2)cc1)Nc1ccc(C2=NCCCN2)cc1, CCCCCc1nnc(NC(=O)c2ccc(-c3ccc(OC)cc3)cc2)s1 is higher in IFI: 0.909% for the first, 6.56% for the second.

First: COc1ccc(C[C@H](N)C(=O)N[C@H]2[C@@H](O)[C@H](n3cnc4c(N(C)C)ncnc43)O[C@@H]2CO)cc1
Second: COC(=O)[C@@H]1C[C@@H](NC(=O)c2ccc(OC)cc2OC)CN1Cc1ccc(C)cc1C
The IFI of the first is higher: 30.8% for the first, 0.877% for the second.

Compared with O=S(=O)(NCCCCNc1ccnc2cc(Cl)ccc12)c1cc(Cl)ccc1Cl, CC(C)CC(=O)N(C)CCCNc1ccnc2cc(Cl)ccc12 is lower in IFI: 3.85% for the first, 0.935% for the second.

Going from O=C(CCl)NCCNc1ncc(C(F)(F)F)cc1Cl to Cn1nc(C(F)(F)F)c(-c2ccc(F)cc2)c1NC(=O)Nc1ccc(F)cc1F, the IFI rises from 1.37% to 2.48%.

First: Cc1ccc2cc3cc(C(=O)NC(C)C)sc3nc2c1
Second: COc1ccccc1C(=O)NNC(=O)c1ccccn1
The IFI of the first is lower: 4.35% for the first, 12.1% for the second.

First: O=C(NCc1ccccc1)c1cnc(NCCN2CCCCC2)nc1NCCc1ccccc1
Second: O=C(Nc1ccc(N2CCCCC2)cc1)N1CCc2nc[nH]c2C1c1ccc(Cl)cc1 (stereo not drawn)
The IFI of the first is lower: 0.952% for the first, 2.3% for the second.

Compared with Nc1nonc1-n1nnc(C(=O)NN=Cc2ccc(F)c(Br)c2)c1-c1ccc([N+](=O)[O-])cc1, COc1ccc(NC(=O)C2c3ccccc3C(=O)N(C3CCCC3)C2c2cccs2)cc1Cl (stereo not drawn) is higher in IFI: 0% for the first, 6.25% for the second.

Work on N#Cc1ccc(N2CCCN(C(=S)NC3CCCC3)CC2)nc1 yielded an IFI of 0.787%.
